Measured values from the RNAGym collection of RNA variant scans (doi:10.1093/nar/gkz1192).
Read counts are not given, so values of variants with three or more changes are uncertain.

B1: CPEB3 Ribozyme (parent)
chain: UAACAGGGGGCCACAGCAGAAGCGUUCACGUCGCAGCCCCUGUCAGAUUCUGGUGAAUCUGCGAAUUCUGCUGUAUAUCUC

Variants of: B1
Experiment: self-cleavage, relative activity (ratio to wild type); higher = more cleavage; in vitro, sequencing
How it was run: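 Relative activity compares each variant's cleaved/total read fraction with that of the unmutated ribozyme. To get these fractions, barcoded CPEB3 ribozyme libraries from rounds of error-prone PCR were transcribed with T7 RNA polymerase for 5 hours at 37°C and then given 15 min of DNase I treatment before EDTA was added. The RNAs were reverse transcribed with template switching and sequenced on Illumina, and DNA sequencing linked barcodes to variants. A minimum of 5 reads applied, and three batches were averaged.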

Variant | self-cleavage
UAACAGGGGGCCACAGCAGAAGCGUUCACGUCGCAGCCCCUGUCAGAUUCCUGUGAACCUGCGAAUCCUGCUGUAUAUCUC [U51C G52U U58C U67C] | 0.19
UAACAGGGGGCCACAGCAGAAGCGUUCACGUCGCAGCCCCUGUCAGAUUCCGGUUAGUCUGCGAAUUCUGCUGUAUAUCUC [U51C G55U A57G] | 0.46
UAACAGGGGGCCACAGCAGAAGCGUUCACGUCGCAGCCCCUGUCAGAUUCCGGUGUGUCUGCGAAUUCUGCUGUAUAUCUC [U51C A56U A57G] | 0.4
UAACAGGGGGCCACAGCAGAAGCGUUCACGUCGCAGCCCCUGUCAGAUUCCGGUGUGUCUGCGAAUUCUGCUGUAUGUCUC [U51C A56U A57G A77G] | 0.2
UAACAGGGGGCCACAGCAGAAGCGUUCACGUCGCAGCCCCUGUCAGAUCCUGGUGAAUCCGUGAAUUCUGCUGUAUAUCUC [U49C U60C C62U] | 0.09
UAACAGGGGGCCACAGCAGAAGCGUUCACGUCGCAGCCCCUGUCAGAUUCGGGCGAACCUGAGAAUUCUGCUGUAUAUCUC [U51G U54C U58C C62A] | 0.63
UAACAGGGGGCCACAGCAGAAGCGUUCACGUCGCAGCCCCUGUCAGAUUCAGGUGAAUCUGCGGAUCCUGCUGUAUAUCUC [U51A A64G U67C] | 0.49
UAACAGGGGGCCACAGCAGAAGCGUUCACGUCGCAGCCCCUGUCAGAUCCUGGUGAAUCAGCGAAUUCUGCUGUACAUCUC [U49C U60A U76C] | 0.12
UAACAGGGGGCCACAGCAGAAGCGUUCACGUCGCAGCCCCUGUCAGAUCCUGGUGAAUCAGCGAAUUCUGCCGUAUAUCUC [U49C U60A U72C] | 0.13
UAACAGGGGGCCACAGCAGAAGCGUUCACGUCGCAGCCCCUGUCAGAUUCCGGAGAAUCUGCGAAUUCUGCUGCAUAUCUC [U51C U54A U74C] | 1.26
UAACAGGGGGCCACAGCAGAAGCGUUCACGUCGCAGCCCCUGUCAGAUUUUGGUGAAUCUGCGAACUCUACUGUAUAUCUC [C50U U66C G70A] | 0.3
UAACAGGGGGCCACAGCAGAAGCGUUCACGUCGCAGCCCCUGUCAGAUUCAGGUGACUCUGCGAAUUCUGCCGUAUAUCUC [U51A A57C U72C] | 0.68
UAACAGGGGGCCACAGCAGAAGCGUUCACGUCGCAGCCCCUGUCAGAUUCAGGUGGAUCUGCGAAUUCUGCCGUAUGUCUC [U51A A56G U72C A77G] | 0.68
UAACAGGGGGCCACAGCAGAAGCGUUCACGUCGCAGCCCCUGUCAGAUUCCGGUGAAUCUACGAAUUCCGCUGUACAUCUC [U51C G61A U69C U76C] | 0.62
UAACAGGGGGCCACAGCAGAAGCGUUCACGUCGCAGCCCCUGUCAGAUUCAGGUGGAUCUGCGAACUCUGCUGUAUAUCUC [U51A A56G U66C] | 0.14
UAACAGGGGGCCACAGCAGAAGCGUUCACGUCGCAGCCCCUGUCAGAUUCCGGUGGUUCUGCGAAUUCUGCUGUAUAUCUC [U51C A56G A57U] | 0.3
UAACAGGGGGCCACAGCAGAAGCGUUCACGUCGCAGCCCCUGUCAGAUUCCGGUGAAUCUGCGAGUUCUGCUGUAUACCUC [U51C A65G U78C] | 0.47

Variant | self-cleavage
UAACAGGGGGCCACAGCAGAAGCGUUCACGUCGCAGCCCCUGUCAGAUCCUGGCGAAUCCGCGAAUUCUGCUGUAAAUCUC [U49C U54C U60C U76A] | 0.38
UAACAGGGGGCCACAGCAGAAGCGUUCACGUCGCAGCCCCUGUCAGAUCCCGGUGAAUCUGCGAAUUCUGCUGUAUACCUC [U49C U51C U78C] | 0.42
UAACAGGGGGCCACAGCAGAAGCGUUCACGUCGCAGCCCCUGUCAGAUCCUGGUGAACCUGUGAAUUCUGCUGUAUAUCUC [U49C U58C C62U] | 0.23
UAACAGGGGGCCACAGCAGAAGCGUUCACGUCGCAGCCCCUGUCAGAUCCUGGUGAAUCAGCGAAUUCCGCUGUAUAUCUC [U49C U60A U69C] | 0.15
UAACAGGGGGCCACAGCAGAAGCGUUCACGUCGCAGCCCCUGUCAGAUUCCGGCGAAUCUGCGAAUUCUGUUGUAUAUCUC [U51C U54C C71U] | 0.56
UAACAGGGGGCCACAGCAGAAGCGUUCACGUCGCAGCCCCUGUCAGAUCCUGGUGAAUCUGCGAAUUCUGCUGUAUACCCC [U49C U78C U80C] | 0.38
UAACAGGGGGCCACAGCAGAAGCGUUCACGUCGCAGCCCCUGUCAGAUCCUGGCGAAUCUGCGAGUUCUGCUGUAUAUCUC [U49C U54C A65G] | 0.31
UAACAGGGGGCCACAGCAGAAGCGUUCACGUCGCAGCCCCUGUCAGAUCCUGGUGAACCUGCGAAUUUUGCUGUAUAUCUC [U49C U58C C68U] | 0.14
UAACAGGGGGCCACAGCAGAAGCGUUCACGUCGCAGCCCCUGUCAGAUUCAGGUGAGUCUGCGAAUGCUGCUGUGUAUCUC [U51A A57G U67G A75G] | 0.09
UAACAGGGGGCCACAGCAGAAGCGUUCACGUCGCAGCCCCUGUCAGAUUCCGGUGAGUCAGCGAAUUCUGCUGUACAUCUC [U51C A57G U60A U76C] | 0.32
UAACAGGGGGCCACAGCAGAAGCGUUCACGUCGCAGCCCCUGUCAGAUUCCGGAGAAUCUGCGGAUUCUGCCGUAUAACAC [U51C U54A A64G U72C U78A U80A] | 0.66
UAACAGGGGGCCACAGCAGAAGCGUUCACGUCGCAGCCCCUGUCAGAUCCUGGUGAACCUGCGGAUUCUGCUGUAUAUCUC [U49C U58C A64G] | 0.28
UAACAGGGGGCCACAGCAGAAGCGUUCACGUCGCAGCCCCUGUCAGAUUCAGGUGAAUCUGCGGAUUCUGCGGUAUAUCUC [U51A A64G U72G] | 0.62
UAACAGGGGGCCACAGCAGAAGCGUUCACGUCGCAGCCCCUGUCAGAUCCAGGUGUAUCUGCGAAUUCUGCUGUAUAUCUC [U49C U51A A56U] | 0.75
UAACAGGGGGCCACAGCAGAAGCGUUCACGUCGCAGCCCCUGUCAGAUUCAGGUGAAACUGCGAAUUCCGCAGUAUAUCUC [U51A U58A U69C U72A] | 0.41
UAACAGGGGGCCACAGCAGAAGCGUUCACGUCGCAGCCCCUGUCAGAUCCCGGUGAAUCUGCGAAUCCAGCUGUAUAUCUC [U49C U51C U67C U69A] | 0.14
UAACAGGGGGCCACAGCAGAAGCGUUCACGUCGCAGCCCCUGUCAGAUUCGGGUGAACCUGCUAAUUCUGCUGUAUAUCUC [U51G U58C G63U] | 0.37
